Test [1] concerns the target H3.77_L3 I332E/H268E Hybrid.
In test [2] the target is H3.77_L3 I332E/G236A Hybrid.
The target in test [3] is H3.77_L3 S239D/I332E Hybrid.
Test [4] deals with H3.77_L3 S239D/I332E/A330Y Hybrid.
Test [5] has as its target H3.77_L3 S239D/I332E/G236A Hybrid.
For test [6], the target named is H3.77_L3 I332E/H268E/G236A Hybrid.
The target in test [7] is H3.77_L3 S239D/H268E Hybrid.

B1: V158 FcgRIIIa (receptor)
chain: not shown
For B1, the Kd – broadly, the constant that tells how readily two partners part at equilibrium – was 26.9 nM in [1]; 98.9 nM in [2]; 28.9 nM with H2.12_L3 WT Hybrid Lec13; 14.4 nM in test [3]; 11 nM in test [4]; 22.4 nM in [5]. Further, the equilibrium dissociation constant (Kd) with H3.77_L3 WT Hybrid was found to be 171 nM; in test [6] it was 49.7 nM; in [7], 16.1 nM.

(Values after patent publication US20070161783A1 (published 2007).)
